In publication PMC4336329 (PLoS ONE, 2015):
Among all 310,000 compounds or so, about 14,000 (4.5%) showed an effect of 50% or more. Effects have a minus sign here. The list shows a part of the results.

Molecular target: human ether-à-go-go-related gene (hERG) potassium channel (human, UniProt Q12809)
Test: primary screen, population patch clamp on CHO cells stably expressing hERG
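Also: peak tail current of the secondary pulse compared with the same well before compound.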

human ether-à-go-go-related gene (hERG) potassium channel, sequence (Q12809 whole entry, looked up): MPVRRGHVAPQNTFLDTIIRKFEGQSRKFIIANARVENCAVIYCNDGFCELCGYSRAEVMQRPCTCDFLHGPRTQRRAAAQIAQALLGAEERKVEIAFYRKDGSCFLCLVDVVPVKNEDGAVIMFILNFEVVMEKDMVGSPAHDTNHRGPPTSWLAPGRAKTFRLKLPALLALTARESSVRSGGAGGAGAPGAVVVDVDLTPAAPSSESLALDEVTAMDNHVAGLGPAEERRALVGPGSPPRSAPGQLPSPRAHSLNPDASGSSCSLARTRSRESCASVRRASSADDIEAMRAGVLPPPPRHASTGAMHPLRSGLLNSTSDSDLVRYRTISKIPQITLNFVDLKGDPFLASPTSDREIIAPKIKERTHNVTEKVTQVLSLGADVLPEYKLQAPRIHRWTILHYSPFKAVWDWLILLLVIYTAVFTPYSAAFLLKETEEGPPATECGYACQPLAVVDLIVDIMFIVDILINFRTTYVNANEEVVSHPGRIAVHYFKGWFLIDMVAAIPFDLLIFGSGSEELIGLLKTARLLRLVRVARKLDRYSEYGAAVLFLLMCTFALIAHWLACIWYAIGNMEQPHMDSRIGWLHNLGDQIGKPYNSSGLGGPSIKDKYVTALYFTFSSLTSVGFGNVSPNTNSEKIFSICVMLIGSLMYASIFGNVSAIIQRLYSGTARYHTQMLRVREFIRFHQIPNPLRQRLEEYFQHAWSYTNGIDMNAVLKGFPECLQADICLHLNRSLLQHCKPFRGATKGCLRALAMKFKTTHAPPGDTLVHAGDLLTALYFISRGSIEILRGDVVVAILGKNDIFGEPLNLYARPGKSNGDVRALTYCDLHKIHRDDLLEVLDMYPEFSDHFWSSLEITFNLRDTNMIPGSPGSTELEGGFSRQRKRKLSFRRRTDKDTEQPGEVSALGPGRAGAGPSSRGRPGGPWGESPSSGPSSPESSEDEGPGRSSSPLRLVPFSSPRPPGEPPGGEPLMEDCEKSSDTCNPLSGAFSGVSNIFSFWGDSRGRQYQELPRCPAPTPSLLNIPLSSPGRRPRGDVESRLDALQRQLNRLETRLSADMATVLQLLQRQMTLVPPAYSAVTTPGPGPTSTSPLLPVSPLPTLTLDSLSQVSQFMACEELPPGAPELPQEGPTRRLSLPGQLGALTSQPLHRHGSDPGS

Row | SMILES | hERG current change (%, negative = inhibition) at 10uM
1 | C=CCc1ccc(O)c(-c2ccc(O)c(CC=C)c2)c1 | -0.299%
2 | Cc1ccc([N+](=O)[O-])cc1NC(=O)c1ccc(CSc2ccccc2)cc1 | 7.14%
3 | CCC(=O)Nc1nc(=S)ss1 | 13.5%
4 | CC1CCN(c2nc3c(c(=O)n(C)c(=O)n3C)n2CCSc2ncccn2)CC1 | -3.05%
5 | Cc1ccc(C(=O)N(Cc2sccc2C)C2CCS(=O)(=O)C2)cc1 (stereo not shown) | -28.2%
6 | Cc1ccc(CC(CC(=O)Nc2cccc(C(F)(F)F)c2)C(=O)O)cc1 (stereo not shown) | 18%
7 | COC(=O)c1ccc(C2C(C(=O)c3cc4ccccc4o3)=C(O)C(=O)N2CCCN(C)C)cc1 (stereo not shown) | 11.4%
8 | COc1ccc(-c2[nH]c(-c3ccccc3)nc2SCC(=O)NCc2ccco2)cc1OC | 3.7%
9 | CNS(=O)(=O)c1ccc2nc(NC(=O)c3ccc(N4C(=O)CCC4=O)cc3)sc2c1 | 37.6%
10 | CCCc1ccc(OCc2ccccc2)c2c(=O)cc(C(=O)OCC)oc12 | 10.9%
11 | CC(C)CC(=O)Nc1ccc(F)c(Cl)c1 | -19.5%
12 | COc1ccc(C2OC(=O)CC2C(=O)NCc2ccc(C)cc2)cc1OC (stereo not shown) | -16%
13 | COCCn1c(-c2ccc(C#N)cc2)nc2c1c(=O)[nH]c(=O)n2Cc1ccccc1 | -33.9%
14 | Cc1cc(CSc2ccccc2)ccc1NC(=O)c1ccc(CN2CCOCC2)cc1 | 2.01%
15 | COc1ccccc1CNc1cc(C)ccc1C | 2.75%
16 | Cc1cc(C)c(N(C(=O)CN2C(=O)c3ccccc3S2(=O)=O)C(C(=O)NCC2CCCO2)c2ccc(F)cc2)c(C)c1 (stereo not shown) | 1.66%
17 | Cc1ccccc1NC(=O)COC(=O)c1cccnc1 | 17.1%
18 | Nc1c(S(=O)(=O)c2cccs2)c2nc3ccccc3nc2n1Cc1ccccc1 | -3.1%
19 | CCOC(=O)NC(=O)CSc1nnc(C2CC2)n1Cc1ccco1 | 14.8%
20 | OCc1c[nH]c2ccccc12 | 9.02%
21 | COc1cc(NS(=O)(=O)c2ccc(NC(C)=O)cc2)nc(OC)n1 | 5.7%
22 | O=C(NCc1ccccc1Cl)C1CCN(S(=O)(=O)c2cccs2)CC1 | -63.4%

Row | SMILES | hERG current change (%, negative = inhibition) at 10uM
23 | COc1ccc(C(=O)N2CCN=C2SCc2cccnc2)c(OC)c1 | -3.09%
24 | CC1(c2ccc3c(c2)OCO3)NC(=O)N(CC(=O)NCCC2=CCCCC2)C1=O (stereo not shown) | -6.08%
25 | N#Cc1ccsc1NC(=O)c1ccccn1 | -4.67%
26 | CCOc1ccc(S(=O)(=O)N2CCCCC2)cc1NC(=O)Cc1ccccc1 | -12.7%
27 | COc1ccc(CCNC(=O)CN(C)S(=O)(=O)c2cccs2)cc1OC | -1.23%
28 | Cc1nc(NCCc2ccccc2)sc1C(=O)O | 28.8%
29 | COc1ccccc1NC(=O)CSc1nnc(CNC(=O)c2ccccc2F)o1 | 1.06%
30 | CC(C(=O)Nc1cccnc1)c1ccc([N+](=O)[O-])cc1 (stereo not shown) | -7.49%
31 | O=C(CNC(=O)c1ccccc1)OCCOc1cccc(Cl)c1 | -2.54%
32 | COc1cc(NC2c3ncccc3C(=O)N2Cc2ccco2)cc(OC)c1 (stereo not shown) | -0.0378%
33 | O=C(Nc1cccc(F)c1)C1CCCN1S(=O)(=O)c1cccc2cccnc12 (stereo not shown) | -18%
34 | CC(=O)Nc1ccc(OCC(=O)NCCc2ccc(Cl)cc2)cc1 | -9.6%
35 | O=C(N=Nc1c(O)[nH]c2ccc([N+](=O)[O-])cc12)c1ccccc1Cl | 6.89%
36 | CCOc1cc(C2C(C(=O)O)c3cc(OCC)c(OCC)cc3C(=O)N2C)ccc1O (stereo not shown) | 2.69%
37 | CCCN1CCN(C(=O)c2ccc3nc(CC)c(CC)nc3c2)CC1 | 1.54%
38 | O=C(NCc1ccccc1)N1CCC(c2nc3ccccc3[nH]2)CC1 | -15.1%
39 | CC1CC(C)(C)N(C(=O)CN2C(=O)c3ccccc3C2=O)c2ccccc21 (stereo not shown) | 4.6%
40 | CC(=O)Nc1cccc(Oc2cnc3ccccc3n2)c1 | -3.08%
41 | Cc1c(S(=O)(=O)N2CCCC(C)C2)c(=O)n(C)c(=O)n1C (stereo not shown) | -2.74%
42 | COc1cccc(C(=O)COc2ccc3c(C)cc(=O)oc3c2)c1 | -70.8%
43 | COc1ccccc1CNC(=O)C1CCCN1S(=O)(=O)c1cccc2cccnc12 (stereo not shown) | -12.5%
44 | O=C(NCCCN1CCCC1)c1ccc2c(c1)N(Cc1ccccc1F)C(=O)c1ccccc1S2=O (stereo not shown) | -22.5%

Row | SMILES | hERG current change (%, negative = inhibition) at 10uM
45 | Cc1ccccc1Oc1cc(-n2ncc(Cl)c(Cl)c2=O)ncn1 | 6.67%
46 | COc1ccc(N2CCN(C(=O)CCc3ccc(S(=O)(=O)NCC(C)C)cc3)CC2)cc1 | -57.1%
47 | CN(C)S(=O)(=O)c1cc(NC(=O)COC(=O)Cc2ccc(Cl)cc2Cl)ccc1Cl | -4.97%
48 | Oc1ccccc1CNc1ccc(Br)cn1 | -22.9%
49 | Clc1ccc(OCc2cc(-c3ccccc3)no2)cc1Cl | 12.9%
50 | O=C(N/N=C/c1ccc([N+](=O)[O-])cc1)c1cc(C2CC2)[nH]n1 | -14.8%
51 | COc1cccc(-c2cc(C(=O)NCc3ccco3)no2)c1 | 6.68%
52 | Cc1ccc(-c2c3c(=O)n(C)c(=O)n(C)c3cn2N2CCOCC2)cc1 | -40%
53 | COc1ccc(NC(=O)CN(c2ccc(C)cc2)S(C)(=O)=O)c(OC)c1 | -10.3%
54 | Cc1ccc(S(=O)(=O)NCCNc2ccccc2[N+](=O)[O-])cc1 | -16.1%
55 | CC(=O)C1=C(C)Nc2ncnn2C1c1ccc(F)cc1 (stereo not shown) | 18.6%
56 | O=C(NCCCc1ccccc1)C1CC1 | 22.2%
57 | Cc1cc(C)n2ncc(C(=O)NCCc3ccccc3)c2n1 | -13%
58 | CCOc1ccc(CCNC(=O)c2cn(C)c3ccc(S(=O)(=O)N4CCOCC4)cc3c2=O)cc1OCC | -41.7%
59 | COc1ccc(-c2c(C)n([O-])c3c([n+]2=O)CCCC3)cc1 | -3.69%
60 | Cc1ccc(S(=O)(=O)N(C)C)cc1-n1c(SCC(=O)N(C)C)nc2ccccc2c1=O | -3.69%
61 | CC(C)(C)C(=O)N1CCN(c2ccc([N+](=O)[O-])cc2Cl)CC1 | -33.2%
62 | Nc1ccc(Oc2ccc(Cl)cc2)cc1 | 18.1%
63 | NC(=O)c1nsc(C(=O)N(Cc2cccnc2)C(C(=O)NC2CCCCC2)c2ccc(F)cc2)c1N (stereo not shown) | 9.23%
64 | O=C(COc1nncc2ccccc12)NCC(F)(F)F | 16.5%
65 | Cc1cccc(/C=N/NC(=O)c2ccc(NC(=O)c3ccc(F)cc3)cc2)n1 | -0.123%
66 | CCOC(=O)CSc1nc2c(c(-c3ccc(C)o3)c1C#N)CCCC2 | 11.9%

Row | SMILES | hERG current change (%, negative = inhibition) at 10uM
67 | COc1cc(OC)c(OC)cc1/C=N/NC(=O)c1cc(-c2cccn2C)n[nH]1 | -23.5%
68 | O=C(c1ccco1)N1CCN(C(=O)c2cnn3cccnc23)CC1 | 12.4%
69 | CN(Cc1ccc(Cl)c(Cl)c1)C(=O)C1=CC=CN2CCS(=O)(=O)N=C12 | -0.925%
70 | CCCn1nc(C(=O)NNC(=O)CCCOc2ccc(C)cc2)c2ccccc2c1=O | -15.3%
71 | O=C(NCCc1c[nH]c2ccccc12)c1ccc(S(=O)(=O)NCc2ccco2)cc1 | 3.78%
72 | C=CCNC(=O)c1ccccc1NC(=O)c1ccc(Cl)c(S(=O)(=O)Nc2ccccc2)c1 | -15.5%
73 | O=C(c1cc2ccccc2oc1=O)N(Cc1cccs1)Cc1cccs1 | -14.4%
74 | COc1ccc(Oc2nc(SC)nc3ccccc23)cc1 | 7.93%
75 | N#CC(C#N)=Cc1ccccc1OCc1ccccc1 | 9.08%
76 | C/C=C/C(=O)N1CC2(CC(c3cccc(NC(=O)CC)c3)=NO2)C[C@H]1C(N)=O (stereo partly shown) | -5.24%
77 | O=C1C(=O)N(c2ccccc2)c2ccccc21 | -30.7%
78 | O/N=C1\CCc2cc(Cl)ccc21 | -5.67%
79 | Cc1ccc(C)c(NC(=O)C(Sc2nnc(-c3cccs3)o2)c2ccccc2)c1 (stereo not shown) | 15%
80 | O=Cc1ccc(O)cc1O | -1.16%
81 | CCN(C(=O)c1ccc2c(=O)n3c(nc2c1)CCCCC3)c1ccccc1C | -3.73%
82 | O=C1c2ccccc2C(=O)N1CCC(=O)N1CCCc2ccccc21 | -6.39%
83 | O=C(NCC1CCCO1)C1CCCN(Cc2cnn(-c3ccccc3)c2-n2cccc2)C1 (stereo not shown) | -11.2%
84 | COC(=O)c1cc(NS(=O)(=O)c2ccc(NCc3cccnc3)c(N)c2)cc(C(=O)OC)c1 | -11.5%
85 | CCOc1ccc(C(=O)Nc2ccc(N3CCN(C)CC3)cc2)cc1[N+](=O)[O-] | -57.3%
86 | Cc1cc(N)n(Cc2ccc(Cl)cc2)n1 | 31.7%
87 | CCOC(=O)CC(C(=O)OCC)P(=O)(c1ccccc1)c1ccccc1 (stereo not shown) | 8.37%
88 | CSc1ccc(CN2CCN(S(=O)(=O)Cc3ccccc3)CC2)cc1 | 1.28%
